# Some of the results follow.
# Experiments:
# Assay in all cases: glycan array binding signal (z-score within array); higher = stronger binding
# Conditions in all cases: glycan notation: IUPAC condensed, linker removed
# Gal(a1-3)Gal(b1-3)GlcNAc = target: Gal(a1-3)Gal(b1-3)GlcNAc
# In short: (§1)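 Arrays were curated from the Consortium for Functional Glycomics database, 3228 in total, and kept only where the protein sequence was available. Binding is expressed as a within-array Z-score. This score was averaged across arrays of the same protein sequence at different concentrations or buffers and across linkers, and negative values can be read as non-binding.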
# [1] = target: Gal(a1-3)Gal(b1-3)GlcNAc(b1-2)Man
# In short: as §1
# [2] = target: Gal(a1-3)Gal(b1-3)GlcNAc(b1-2)Man(a1-3)[Gal(a1-3)Gal(b1-3)GlcNAc(b1-2)Man(a1-6)]Man(b1-4)GlcNAc(b1-4)GlcNAc
# In short: as §1
# [3] = target: Gal(a1-3)Gal(b1-3)GlcNAc(b1-3)GalNAc
# In short: as §1
# [4] = target: Gal(a1-3)Gal(b1-3)GlcNAc(b1-6)GalNAc
# In short: as §1
# [5] = target: Gal(a1-3)Gal(b1-3)[Fuc(a1-4)]GlcNAc(b1-2)Man(a1-3)[Gal(a1-3)Gal(b1-3)[Fuc(a1-4)]GlcNAc(b1-2)Man(a1-6)]Man(b1-4)GlcNAc(b1-4)GlcNAc
# In short: as §1
# Gal(a1-3)Gal(b1-4)Glc = target: Gal(a1-3)Gal(b1-4)Glc
# In short: as §1
# Gal(a1-3)Gal(b1-4)GlcNAc = target: Gal(a1-3)Gal(b1-4)GlcNAc
# In short: as §1
# [6] = target: Gal(a1-3)Gal(b1-4)GlcNAc(b1-2)Man
# In short: as §1
# [7] = target: Gal(a1-3)Gal(b1-4)GlcNAc(b1-2)Man(a1-3)[Gal(a1-3)Gal(b1-4)GlcNAc(b1-2)Man(a1-6)]Man(b1-4)GlcNAc(b1-4)GlcNAc
# In short: as §1
# [8] = target: Gal(a1-3)Gal(b1-4)GlcNAc(b1-3)GalNAc
# In short: as §1
# [9] = target: Gal(a1-3)Gal(b1-4)GlcNAc(b1-6)GalNAc
# In short: as §1
# [10] = target: Gal(a1-3)Gal(b1-4)[Fuc(a1-3)]GlcNAc
# In short: as §1
# [11] = target: Gal(a1-3)Gal(b1-4)[Fuc(a1-3)]GlcNAc(b1-2)Man(a1-3)[Gal(a1-3)Gal(b1-4)[Fuc(a1-3)]GlcNAc(b1-2)Man(a1-6)]Man(b1-4)GlcNAc(b1-4)GlcNAc
# In short: as §1
# Gal(a1-3)GalNAc = target: Gal(a1-3)GalNAc
# In short: as §1
# [12] = target: Gal(a1-3)[Gal(a1-4)]Gal(b1-4)GlcNAc
# In short: as §1
# [13] = target: Gal(a1-4)Gal(b1-3)GlcNAc(b1-2)Man(a1-3)[Gal(a1-4)Gal(b1-3)GlcNAc(b1-2)Man(a1-6)]Man(b1-4)GlcNAc(b1-4)GlcNAc
# In short: as §1
# Gal(a1-4)Gal(b1-4)Glc = target: Gal(a1-4)Gal(b1-4)Glc
# In short: as §1
# Gal(a1-4)Gal(b1-4)GlcNAc = target: Gal(a1-4)Gal(b1-4)GlcNAc
# In short: as §1
# [14] = target: Gal(a1-4)Gal(b1-4)GlcNAc(b1-2)Man(a1-3)[Gal(a1-4)Gal(b1-4)GlcNAc(b1-2)Man(a1-6)]Man(b1-4)GlcNAc(b1-4)GlcNAc
# In short: as §1
# [15] = target: Gal(a1-4)Gal(b1-4)GlcNAc(b1-3)Gal(b1-4)Glc
# In short: as §1
# Gal(a1-4)GlcNAc = target: Gal(a1-4)GlcNAc
# In short: as §1
# Gal(a1-6)Glc = target: Gal(a1-6)Glc
# In short: as §1
# Gal(b1-2)Gal = target: Gal(b1-2)Gal
# In short: as §1
# Gal(b1-3)Gal = target: Gal(b1-3)Gal
# In short: as §1
# Gal(b1-3)Gal(b1-4)GlcNAc = target: Gal(b1-3)Gal(b1-4)GlcNAc
# In short: as §1
# Gal(b1-3)GalNAc = target: Gal(b1-3)GalNAc
# In short: as §1
# [16] = target: Gal(b1-3)GalNAc(a1-3)[Fuc(a1-2)]Gal(b1-4)Glc
# In short: as §1
# [17] = target: Gal(b1-3)GalNAc(a1-3)[Fuc(a1-2)]Gal(b1-4)GlcNAc
# In short: as §1
# Gal(b1-3)GalNAc(b1-3)Gal = target: Gal(b1-3)GalNAc(b1-3)Gal
# In short: as §1
# [18] = target: Gal(b1-3)GalNAc(b1-3)Gal(a1-4)Gal(b1-4)Glc
# In short: as §1
# [19] = target: Gal(b1-3)GalNAc(b1-4)Gal(b1-4)Glc
# In short: as §1
# [20] = target: Gal(b1-3)GalNAc(b1-4)[Neu5Ac(a2-3)]Gal(b1-4)Glc
# In short: as §1
# Gal(b1-3)GlcNAc = target: Gal(b1-3)GlcNAc
# In short: as §1
# [21] = target: Gal(b1-3)GlcNAc(a1-3)Gal(b1-4)GlcNAc
# In short: as §1
# [22] = target: Gal(b1-3)GlcNAc(a1-6)Gal(b1-4)GlcNAc
# In short: as §1
# Gal(b1-3)GlcNAc(b1-2)Man = target: Gal(b1-3)GlcNAc(b1-2)Man
# In short: as §1
# [23] = target: Gal(b1-3)GlcNAc(b1-2)Man(a1-3)[Gal(b1-3)GlcNAc(b1-2)Man(a1-6)]Man(b1-4)GlcNAc(b1-4)GlcNAc
# In short: as §1
binder,measurement,setting,value
Epa3to1 (Candida glabrata) (protein) MGSSHHHHHHSSGLVPRGSHMKRELSSQNPFGYPIGCSPQDVAIIPGLTMELYSYPIVSGTPPNCYDASYVDPEYPRTGYLKRKMVGKSTGVTGNLNYKYSVEKACMVKYGNLPAGYNYNEPLTVSNFTMILYGYFKAQTTGLHTFFVNADDLLYINFGAGNAFDCCKREDSKTKLGEYVAYDIWHVDSSKNKVSLFLEKDLYYPIRMFFNNREYDSSLDLSFSVNGATDQISDFSGYLYSVPDQPDTCPAHIGYDTTCR,glycan array binding signal (z-score),Gal(a1-3)Gal(b1-3)GlcNAc,0.136
same,glycan array binding signal (z-score),[1],1.23
same,glycan array binding signal (z-score),[2],0.169
same,glycan array binding signal (z-score),[3],-0.594
same,glycan array binding signal (z-score),[4],1.36
same,glycan array binding signal (z-score),[5],-0.283
same,glycan array binding signal (z-score),Gal(a1-3)Gal(b1-4)Glc,0.115
same,glycan array binding signal (z-score),Gal(a1-3)Gal(b1-4)GlcNAc,0.851
same,glycan array binding signal (z-score),[6],-0.341
same,glycan array binding signal (z-score),[7],0.176
same,glycan array binding signal (z-score),[8],1.25
same,glycan array binding signal (z-score),[9],0.248
same,glycan array binding signal (z-score),[10],-0.405
same,glycan array binding signal (z-score),[11],-0.206
same,glycan array binding signal (z-score),Gal(a1-3)GalNAc,-0.338
same,glycan array binding signal (z-score),[12],0.151
same,glycan array binding signal (z-score),[13],0.42
same,glycan array binding signal (z-score),Gal(a1-4)Gal(b1-4)Glc,0.093
same,glycan array binding signal (z-score),Gal(a1-4)Gal(b1-4)GlcNAc,0.776
same,glycan array binding signal (z-score),[14],-0.043
same,glycan array binding signal (z-score),[15],0.497
same,glycan array binding signal (z-score),Gal(a1-4)GlcNAc,3.41
same,glycan array binding signal (z-score),Gal(a1-6)Glc,1.7
same,glycan array binding signal (z-score),Gal(b1-2)Gal,-0.134
same,glycan array binding signal (z-score),Gal(b1-3)Gal,1.72
same,glycan array binding signal (z-score),Gal(b1-3)Gal(b1-4)GlcNAc,2.23
same,glycan array binding signal (z-score),Gal(b1-3)GalNAc,0.802
same,glycan array binding signal (z-score),[16],0.727
same,glycan array binding signal (z-score),[17],-0.289
same,glycan array binding signal (z-score),Gal(b1-3)GalNAc(b1-3)Gal,2.16
same,glycan array binding signal (z-score),[18],1.5
same,glycan array binding signal (z-score),[19],5.3
same,glycan array binding signal (z-score),[20],1.56
same,glycan array binding signal (z-score),Gal(b1-3)GlcNAc,-0.531
same,glycan array binding signal (z-score),[21],-0.354
same,glycan array binding signal (z-score),[22],0.409
same,glycan array binding signal (z-score),Gal(b1-3)GlcNAc(b1-2)Man,-0.013
same,glycan array binding signal (z-score),[23],1.14

# From the supplement of paper PMC8728848
